# Measurements from article PMC9911399, “Two distinct binding modes provide the RNA-binding protein RbFox with extraordinary sequence specificity”.
# Positions count from the first letter of the chain named. Some of the results follow.
# T1: RBFOX1 RRM RbFoxmut (Fox-RRM*) (Homo sapiens, UniProt Q9NWB1 109-208, R118D;E147R;N151S;E152T)
# T1 sequence: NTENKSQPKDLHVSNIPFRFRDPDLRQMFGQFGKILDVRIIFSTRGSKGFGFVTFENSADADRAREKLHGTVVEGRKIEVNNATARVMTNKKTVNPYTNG
# B1: CCAAUUU (DNA:RNA)
# RNA: GGGAGACCGGAAUUCAGAUUGUCCCCAAUUUUUAAAUCCCGUCGUAGCCACCA
# DNA 1: CAATCTGAATTCCGGTCTCCC
# DNA 2: TGGTGGCTACGACGGGATT
# B2: UGUAUUG (DNA:RNA)
# RNA: B1 RNA with C25U, C26G, A27U, U31G
# DNA 1: CAATCTGAATTCCGGTCTCCC
# DNA 2: TGGTGGCTACGACGGGATT
# B3: ACCACAG (DNA:RNA)
# RNA: B1 RNA with C25A, A27C, U29C, U30A, U31G
# DNA 1: CAATCTGAATTCCGGTCTCCC
# DNA 2: TGGTGGCTACGACGGGATT
# B4: AAGGACA (DNA:RNA)
# RNA: GGGAGACCGGAAUUCAGAUUGUCCAAGGACAUUAAAUCCCGUCGUAGCCACCA
# DNA 1: CAATCTGAATTCCGGTCTCCC
# DNA 2: TGGTGGCTACGACGGGATT
# B5: CUGUACU (DNA:RNA)
# RNA: B4 RNA with A25C, A26U, G28U, A31U
# DNA 1: CAATCTGAATTCCGGTCTCCC
# DNA 2: TGGTGGCTACGACGGGATT
# B6: GAUGAUA (DNA:RNA)
# RNA: B4 RNA with A25G, G27U, C30U
# DNA 1: CAATCTGAATTCCGGTCTCCC
# DNA 2: TGGTGGCTACGACGGGATT
# B7: GGACUGU (DNA:RNA)
# RNA: B1 RNA with C25G, C26G, A28C, U30G
# DNA 1: CAATCTGAATTCCGGTCTCCC
# DNA 2: TGGTGGCTACGACGGGATT
# B8: UGCUGUU (DNA:RNA)
# RNA: B1 RNA with C25U, C26G, A27C, A28U, U29G
# DNA 1: CAATCTGAATTCCGGTCTCCC
# DNA 2: TGGTGGCTACGACGGGATT
# B9: CGAGGCU (DNA:RNA)
# RNA: B1 RNA with C26G, A28G, U29G, U30C
# DNA 1: CAATCTGAATTCCGGTCTCCC
# DNA 2: TGGTGGCTACGACGGGATT
# B10: UGGAAUU (DNA:RNA)
# RNA: B1 RNA with C25U, C26G, A27G, U29A
# DNA 1: CAATCTGAATTCCGGTCTCCC
# DNA 2: TGGTGGCTACGACGGGATT
# B11: CUCGACC (DNA:RNA)
# RNA: B4 RNA with A25C, A26U, G27C, A31C
# DNA 1: CAATCTGAATTCCGGTCTCCC
# DNA 2: TGGTGGCTACGACGGGATT
# B12: UUCACCU (DNA:RNA)
# RNA: B1 RNA with C25U, C26U, A27C, U29C, U30C
# DNA 1: CAATCTGAATTCCGGTCTCCC
# DNA 2: TGGTGGCTACGACGGGATT
# B13: UCCUGGC (DNA:RNA)
# RNA: B1 RNA with C25U, A27C, A28U, U29G, U30G, U31C
# DNA 1: CAATCTGAATTCCGGTCTCCC
# DNA 2: TGGTGGCTACGACGGGATT
# B14: UAUAGUG (DNA:RNA)
# RNA: B1 RNA with C25U, C26A, A27U, U29G, U31G
# DNA 1: CAATCTGAATTCCGGTCTCCC
# DNA 2: TGGTGGCTACGACGGGATT
# B15: AUCUUAU (DNA:RNA)
# RNA: B1 RNA with C25A, C26U, A27C, A28U, U30A
# DNA 1: CAATCTGAATTCCGGTCTCCC
# DNA 2: TGGTGGCTACGACGGGATT
# B16: GGCUUAU (DNA:RNA)
# RNA: B1 RNA with C25G, C26G, A27C, A28U, U30A
# DNA 1: CAATCTGAATTCCGGTCTCCC
# DNA 2: TGGTGGCTACGACGGGATT
# B17: GCGGCUU (DNA:RNA)
# RNA: B1 RNA with C25G, A27G, A28G, U29C
# DNA 1: CAATCTGAATTCCGGTCTCCC
# DNA 2: TGGTGGCTACGACGGGATT
# B18: GACGAAC (DNA:RNA)
# RNA: B4 RNA with A25G, G27C, C30A, A31C
# DNA 1: CAATCTGAATTCCGGTCTCCC
# DNA 2: TGGTGGCTACGACGGGATT
# B19: CUAGGAU (DNA:RNA)
# RNA: B1 RNA with C26U, A28G, U29G, U30A
# DNA 1: CAATCTGAATTCCGGTCTCCC
# DNA 2: TGGTGGCTACGACGGGATT
# B20: ACGUGAU (DNA:RNA)
# RNA: B4 RNA with A26C, G28U, A29G, C30A, A31U
# DNA 1: CAATCTGAATTCCGGTCTCCC
# DNA 2: TGGTGGCTACGACGGGATT
# B21: CGGGCGU (DNA:RNA)
# RNA: B4 RNA with A25C, A26G, A29C, C30G, A31U
# DNA 1: CAATCTGAATTCCGGTCTCCC
# DNA 2: TGGTGGCTACGACGGGATT
# B22: ACGUUCC (DNA:RNA)
# RNA: B4 RNA with A26C, G28U, A29U, A31C
# DNA 1: CAATCTGAATTCCGGTCTCCC
# DNA 2: TGGTGGCTACGACGGGATT
# B23: GCUUCCU (DNA:RNA)
# RNA: B1 RNA with C25G, A27U, A28U, U29C, U30C
# DNA 1: CAATCTGAATTCCGGTCTCCC
# DNA 2: TGGTGGCTACGACGGGATT
# B24: CAGGAAG (DNA:RNA)
# RNA: B4 RNA with A25C, C30A, A31G
# DNA 1: CAATCTGAATTCCGGTCTCCC
# DNA 2: TGGTGGCTACGACGGGATT
# B25: GGCGCCG (DNA:RNA)
# RNA: B4 RNA with A25G, A26G, G27C, A29C, A31G
# DNA 1: CAATCTGAATTCCGGTCTCCC
# DNA 2: TGGTGGCTACGACGGGATT
# B26: UCGUCGC (DNA:RNA)
# RNA: B4 RNA with A25U, A26C, G28U, A29C, C30G, A31C
# DNA 1: CAATCTGAATTCCGGTCTCCC
# DNA 2: TGGTGGCTACGACGGGATT
# B27: UGGCCCA (DNA:RNA)
# RNA: B4 RNA with A25U, A26G, G28C, A29C
# DNA 1: CAATCTGAATTCCGGTCTCCC
# DNA 2: TGGTGGCTACGACGGGATT
# B28: UCGCUGU (DNA:RNA)
# RNA: B1 RNA with C25U, A27G, A28C, U30G
# DNA 1: CAATCTGAATTCCGGTCTCCC
# DNA 2: TGGTGGCTACGACGGGATT
# B29: AUUCGGG (DNA:RNA)
# RNA: B4 RNA with A26U, G27U, G28C, A29G, C30G, A31G
# DNA 1: CAATCTGAATTCCGGTCTCCC
# DNA 2: TGGTGGCTACGACGGGATT
# B30: CUUUCCU (DNA:RNA)
# RNA: B1 RNA with C26U, A27U, A28U, U29C, U30C
# DNA 1: CAATCTGAATTCCGGTCTCCC
# DNA 2: TGGTGGCTACGACGGGATT
# B31: UGUAGAU (DNA:RNA)
# RNA: B1 RNA with C25U, C26G, A27U, U29G, U30A
# DNA 1: CAATCTGAATTCCGGTCTCCC
# DNA 2: TGGTGGCTACGACGGGATT
# Target: T1, RBFOX1 RRM RbFoxmut (Fox-RRM*)
# Assay: EMSA; HiTS-Eq, 1 nM pool, 10 min; buffer printed only for the single-RNA assays: 10 mM Tris pH 7.5, 150 mM NaCl, 3.4 mM EDTA, 0.001% NP-40, 30 C
# Conditions: tags: His6 N-terminal (pET28a); label: 5' 32P
# Outline: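 Purified wild-type or mutant RbFox RRM at increasing concentrations was equilibrated with 1 nM of 5′-radiolabelled RNA carrying 7 randomized nucleotides for 10 min in 50 µL. Unbound RNA was separated by 8% native PAGE and sequenced. Relative association constants came from read-count changes of each RNA species compared with the control reaction, normalised to the cognate motif.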
row,Binder,binding signal
1,B1,0.0683 KA relative to UGCAUGU
2,B2,0.691 KA relative to UGCAUGU
3,B3,0.0853 KA relative to UGCAUGU
4,B4,0.0434 KA relative to UGCAUGU
5,B5,0.102 KA relative to UGCAUGU
6,B6,0.12 KA relative to UGCAUGU
7,B7,0.263 KA relative to UGCAUGU
8,B8,0.127 KA relative to UGCAUGU
9,B9,0.0861 KA relative to UGCAUGU
10,B10,0.104 KA relative to UGCAUGU
11,B11,0.0878 KA relative to UGCAUGU
12,B12,0.0905 KA relative to UGCAUGU
13,B13,0.128 KA relative to UGCAUGU
14,B14,0.137 KA relative to UGCAUGU
15,B15,0.165 KA relative to UGCAUGU
16,B16,0.0884 KA relative to UGCAUGU

row,Binder,binding signal
1,B17,0.0832 KA relative to UGCAUGU
2,B18,0.062 KA relative to UGCAUGU
3,B19,0.0638 KA relative to UGCAUGU
4,B20,0.103 KA relative to UGCAUGU
5,B21,0.11 KA relative to UGCAUGU
6,B22,0.0605 KA relative to UGCAUGU
7,B23,0.0793 KA relative to UGCAUGU
8,B24,0.126 KA relative to UGCAUGU
9,B25,0.0987 KA relative to UGCAUGU
10,B26,0.0875 KA relative to UGCAUGU
11,B27,0.0677 KA relative to UGCAUGU
12,B28,0.105 KA relative to UGCAUGU
13,B29,0.0737 KA relative to UGCAUGU
14,B30,0.0622 KA relative to UGCAUGU
15,B31,0.109 KA relative to UGCAUGU
